Hit rate of the full screen: of about 310,000 compounds, about 2,200 (0.71%) showed an effect of 50% or more. The effect is printed as a negative number. This is one part of the list.
These compounds were tested against human ether-à-go-go-related gene (hERG) potassium channel (human, UniProt Q12809) (assay: primary screen, population patch clamp on CHO cells stably expressing hERG).
Chain of human ether-à-go-go-related gene (hERG) potassium channel (Q12809 whole entry, looked up): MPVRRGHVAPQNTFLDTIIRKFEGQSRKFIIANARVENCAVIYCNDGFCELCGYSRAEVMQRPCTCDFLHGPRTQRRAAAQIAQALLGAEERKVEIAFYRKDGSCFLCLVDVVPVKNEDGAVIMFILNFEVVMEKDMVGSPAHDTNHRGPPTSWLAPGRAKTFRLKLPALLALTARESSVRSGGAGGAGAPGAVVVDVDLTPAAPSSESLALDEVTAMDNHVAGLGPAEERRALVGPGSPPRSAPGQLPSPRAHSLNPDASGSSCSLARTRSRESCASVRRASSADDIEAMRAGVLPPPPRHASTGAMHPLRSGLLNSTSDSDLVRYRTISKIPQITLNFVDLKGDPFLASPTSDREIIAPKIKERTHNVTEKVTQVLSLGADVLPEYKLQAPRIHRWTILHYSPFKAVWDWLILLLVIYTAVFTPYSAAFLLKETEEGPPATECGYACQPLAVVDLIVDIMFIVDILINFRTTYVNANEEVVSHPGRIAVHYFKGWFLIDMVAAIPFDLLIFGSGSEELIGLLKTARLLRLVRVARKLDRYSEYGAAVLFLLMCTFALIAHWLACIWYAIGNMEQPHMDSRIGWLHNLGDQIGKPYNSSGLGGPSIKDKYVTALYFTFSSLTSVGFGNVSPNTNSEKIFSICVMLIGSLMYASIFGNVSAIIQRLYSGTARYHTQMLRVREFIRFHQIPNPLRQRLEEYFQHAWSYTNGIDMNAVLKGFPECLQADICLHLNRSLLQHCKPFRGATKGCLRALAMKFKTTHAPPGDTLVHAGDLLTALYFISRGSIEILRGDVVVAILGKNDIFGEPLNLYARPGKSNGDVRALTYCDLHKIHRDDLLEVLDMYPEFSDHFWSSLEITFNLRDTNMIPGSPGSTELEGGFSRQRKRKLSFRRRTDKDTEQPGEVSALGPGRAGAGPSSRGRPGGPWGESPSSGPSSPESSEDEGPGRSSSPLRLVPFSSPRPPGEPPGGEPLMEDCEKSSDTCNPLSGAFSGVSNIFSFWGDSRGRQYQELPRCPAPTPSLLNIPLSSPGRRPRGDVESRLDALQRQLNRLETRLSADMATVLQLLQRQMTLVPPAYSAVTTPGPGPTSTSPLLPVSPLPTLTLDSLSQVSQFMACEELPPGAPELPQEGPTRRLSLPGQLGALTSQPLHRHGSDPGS

SMILES | hERG current change (%, negative = inhibition) at 1uM
N#C/C(=C\c1ccccc1C(F)(F)F)C(=O)Nc1ccccc1F | 7.57%
CCOC(=O)C1(CCOc2ccccc2)CCN(Cc2ccc(-n3cccn3)cc2)CC1 | -37.8%
COC(=O)c1c(-c2ccc(SC)cc2)sc2ccccc12 | 15.9%
Cc1ccc(N2CC(C(=O)Nc3cccc(C(=O)NC4CC4)c3)CC2=O)cc1 (stereo not shown) | -3.79%
O=C(Nc1nnc(S(=O)(=O)Nc2ccccc2)s1)C1CCCCC1 | 9.71%
CCN1C(=O)C(=O)N(CC(=O)N2CCC(C)Sc3ccccc32)C1=O (stereo not shown) | 8.43%
COc1ccc(CNC(=O)C2CCCN2S(=O)(=O)c2ccccc2)cc1 (stereo not shown) | 27.6%
Cc1ccc(NC(=O)Cc2nnc(SCC(=O)Nc3ccc(N4CCOCC4)cc3)n2C)cc1 | 8.37%
CC(C)CC1NC(=O)N(Cc2cc(=O)n3ccsc3n2)C1=O (stereo not shown) | -11.4%
CC(C)(C)c1ccc(C(=O)c2c[nH]c(C(=O)NCc3ccco3)c2)cc1 | 6.46%
Cc1ccc(N2CCN(c3ccc(NCc4nc5ccccc5n4C)cc3)CC2)cc1 | 14.8%
CCCCCN1CC(=O)N2C(C)c3[nH]c4ccccc4c3C[C@H]2C1=O (stereo partly shown) | 15%
Cc1cc(NC(=O)COc2ncnc3sc(C)c(C)c23)no1 | 1.7%
COc1cccc(/C=C2\SC(=S)N(C(C(=O)O)c3ccccc3)C2=O)c1OC (stereo not shown) | 12%
Fc1ccc(-n2nnnc2-c2cnc(-c3cccs3)nc2C(F)(F)F)cc1 | 13.6%
OCCC1CN(C/C(Cl)=C/c2ccccc2)CCN1C1CCCC1 (stereo not shown) | -43.4%
O=C(c1cccs1)N1CCCC(c2nc3c(nnn3Cc3c(Cl)cccc3Cl)c(=O)[nH]2)C1 (stereo not shown) | -1.71%
COc1cccc(CN2C(=O)NC3(CCCCCC3)C2=O)c1 | 11.8%
Cc1ccc(NC(=O)N2CCC(C(=O)NCC(C)C)CC2)cc1 | 9.17%
CCn1c(=O)cc(SCC(=O)N2CCN(C3CCCCC3)CC2)c2ccccc21 | -0.841%
CCN(CC)S(=O)(=O)c1cccc(C(=O)Nc2cc(C)nn2-c2ccccc2)c1 | -2.81%
COc1ccc(NC(=O)Cn2nc(Cc3cccnc3)c3ccccc3c2=O)c(OC)c1 | -1%

SMILES | hERG current change (%, negative = inhibition) at 1uM
Cc1ccc(-c2nc(CS(=O)(=O)CC(=O)NCc3cccc(F)c3)c(C)o2)cc1 | 16.8%
Cc1ccc(-c2csc(N3CCN(c4cc5c(cc4Cl)nc(C(C)N)n5CCCO)CC3)n2)cc1 (stereo not shown) | 12.2%
C=C1CCN([C@@H](Cc2ccccc2)C(=O)NCCC(C)C)S(=O)(=O)c2ccccc21 | 19.5%
O=S(=O)(Nc1cccnc1)c1ccc(Cl)c(C(F)(F)F)c1 | 10.2%
O=C(CSc1ccc(Cl)cc1)Nc1ccccc1Oc1ccccc1 | 12.4%
CCCC(=O)N1CCN(c2nc3ccc(Cl)cc3s2)CC1 | -26.4%
Cc1cc(C(C#N)c2ccccc2)n2ncnc2n1 (stereo not shown) | 9.73%
NC(=O)c1ccc(NC(=O)CN2CCN(Cc3ccccc3)CC2)cc1 | 9.17%
CCOC(=O)C1=C(Nc2ccc(C)cc2)CC(C)(O)C(C(=O)OCC)C1c1ccccc1 (stereo not shown) | 12.7%
O=[N+]([O-])c1ccc(CNc2cccc(F)c2)s1 | 3.19%
O=C(N/C(=C\c1cn(-c2ccccc2)nc1-c1ccccc1)C(=O)N1CCOCC1)c1ccccc1 | 20%
O=C1CCCC2=C1C(c1ccccc1)NC(=S)N2 (stereo not shown) | 13.8%
CCN(CC)CCn1c(=N)n(CCO)c2ccccc21 | 9.88%
CCCOc1ccc(-c2c(=O)n(OCC(=O)OCC)c3ccccc3[n+]2[O-])cc1 | 12.3%
c1ccc(-c2nc(CSc3nnc(-c4cccs4)o3)cs2)cc1 | 7.66%
Cc1ccccc1OCCCCn1cnc2ccccc21 | 0.343%
Nn1c(SCc2ccc(F)cc2)nnc1-c1ccncc1 | 9.04%
Cc1cccc(S(=O)(=O)Nc2ccc(-n3c(C)nc4ccccc4c3=O)cc2)c1 | -11.9%
CSCCC(NS(=O)(=O)c1ccccc1F)C(=O)OCc1ccccc1Cl (stereo not shown) | -0.748%
Cc1ccc2c(c1)c1nnc(SCC(=O)N3CCCc4ccccc43)nc1n2CC(=O)O | 4.27%
CC[C@@H](NS(=O)(=O)c1ccc(C)cc1)C(=O)Oc1ccc2c3c(c(=O)oc2c1)CCC3 | 11.7%
CC(Cc1cccs1)N(Cc1ccc(Cl)cc1)C(=O)c1ccncc1 (stereo not shown) | 7.5%

SMILES | hERG current change (%, negative = inhibition) at 1uM
Cc1ccc(/C=N/NC(=O)c2cccc(NC(=O)c3ccccc3Cl)c2)o1 | 4.53%
CCOC(=O)C(=O)/C(=C\N(C)C)c1onc(-c2c(Cl)cccc2Cl)c1C(=O)OC | 8.35%
Cc1ccc(NC(=O)C(=O)NCC2CCN(C(=O)c3cccc([N+](=O)[O-])c3)CC2)cc1 | 1.35%
Cc1sc2nc(CSCC(=O)NC(C)(C)C)[nH]c(=O)c2c1C | 12.1%
O=c1oc2ccccc2cc1-c1nnc(NCc2ccco2)s1 | -3.01%
COc1ccc(-n2nnnc2SCC(=O)Nc2cccc(O)c2)cc1 | 7.05%
CC(C)c1ccc(NC(=O)Cn2nnc(C(=O)NCc3ccco3)c2N)cc1 | 17.7%
C=C(C)CNC(=O)c1ccc2nc(Cc3ccc(OC)cc3)oc2c1 | 16.4%
O=S(=O)(Nc1nc2ccccc2nc1NCC1CCCO1)c1ccc(F)cc1 (stereo not shown) | 4.29%
CN(C(=O)C1CC1)C1CCS(=O)(=O)C1 (stereo not shown) | 13.2%
CC(=O)c1cccc(NC(=O)CN2CCc3cc4c(cc3C2C)OCCCO4)c1 (stereo not shown) | 7.6%
CCCn1c(=O)c(C(=O)Nc2ncccc2O)c(O)c2ccccc21 | 9.76%
COc1ccc(/C=N/OCC(=O)N2CC3(C)CC2CC(C)(C)C3)cc1 (stereo not shown) | -15.8%
CCc1nc2ccc(C(=O)N3CCN(c4cccc(Cl)c4)CC3)cc2nc1CC | 7.35%
CC(=O)c1ccccc1C(=O)N(C)C1CCCN(Cc2ccccc2F)C1 (stereo not shown) | 16.1%
C[C@H](NC(=O)c1[nH]cnc1C(=O)Nc1ccccc1)c1ccccc1 | 9.95%
Cc1ccc(N2C(=O)c3ccccc3C2=O)cc1 | 12.3%
COc1ccccc1NC(=O)C(=O)N/N=C(\C)CC(=O)Nc1ccccn1 | 11%
CCN(CC)CCOC(=O)C1(c2ccc([N+](=O)[O-])cc2)CCCC1.Cl | -8.01%
CCCC(=O)NC(=S)Nc1sc2c(c1C(N)=O)CCC2 | 11.1%
COc1ccccc1N(CC(=O)Nc1ccc(S(=O)(=O)N2CCOCC2)cc1)S(C)(=O)=O | 14.4%
COc1cccc(CNC(=O)CN(C)S(=O)(=O)c2ccc3c(c2)CC(C)N3C(C)=O)c1 (stereo not shown) | 10.9%

SMILES | hERG current change (%, negative = inhibition) at 1uM
CC(C)C1Cc2c(sc3c2c(=O)n(Cc2ccccc2)c2nncn32)CO1 (stereo not shown) | -8.12%
COc1cc(C2C(C(=O)c3cccs3)=C(O)C(=O)N2CCN2CCOCC2)cc(OC)c1OC (stereo not shown) | 7.57%
O=C1NC2(CCCCC2)N=C1c1ccc(F)cc1 | 2.53%
CCC(=NC1CCN(Cc2ccccc2)CC1)c1c(O)[nH]c(=O)[nH]c1=O | -7.6%
O=C(O)c1ccc(N2CCCCC2)cc1 | 8.62%
COC(=O)Nc1nnc(-c2ccccc2Cl)s1 | 15%
N#Cc1cnc2nc(SCc3ccccc3)nn2c1 | 9.5%
Cc1cc(C(=O)Cn2c(CO)nc3ccccc32)c(C)n1C | 9.28%
O=C(Nc1ccccc1)N1CCc2scc[n+]2-c2ccccc21.[Br-] | 14.5%
CCCC(=O)Nc1ccc(Cl)c(NC(=O)CC)c1 | 6.91%
COc1cccc2c1cc1c(=O)n(CC(=O)NCc3ccccn3)nc(C)n12 | 11%
COC(=O)c1ccc(C2Nc3cccc4cccc(c34)N2)cc1 | 7.65%
CC(C)N(C(=O)c1ccc2nc(-c3ccccc3)c(-c3ccccc3)nc2c1)C(C)C | 9.62%
CCc1nnc(NS(=O)(=O)c2ccc(NC(=O)c3cccc(Cl)c3)cc2)s1 | 14%
CN(C)S(=O)(=O)c1cccc(NC(=O)COc2nc3ccccc3nc2N2CCOCC2)c1 | -1.88%
Cc1ccnc(NC(=O)c2ccco2)n1 | 10.5%
CCCCNC(=O)CS(=O)Cc1nc(-c2cccs2)oc1C (stereo not shown) | -2.68%
CCC(CC)NC(=O)Nc1ccc(F)c(Cl)c1 | 1.21%
N=c1c2c3c(sc2ncn1Nc1ccccc1)CCC3 | 1.05%
Clc1ccc(-c2n[nH]c3c2CCC3)cc1Cl | 12.9%
CCCn1c(=N)n(CC(O)c2ccc(C)cc2)c2ccccc21.Cl (stereo not shown) | -14.9%
CCOC(=O)c1c(NC(=O)C2C3C=CC(C3)C2(C)C(=O)O)sc2c1CCCC2 (stereo not shown) | 9.89%

Source: paper PMC4336329 (PLoS ONE, 2015)
